Some of the results follow. Many values rest on one well or one pass, so single values are uncertain.
Experiments:
Assay in all cases: cell count relative to DMSO control; melanoma cells; higher = more viable cells
Conditions in all cases: library dose: standard library concentration; 72 h
A101D = system: A101D
A2058 = system: A2058
A375 = system: A375
501Mel = system: 501Mel
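Further: cells treated in 1,536-well plates, then fixed and DAPI-stained, with nuclei counted from automated high-throughput microscope images.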

SMILES	cell count (A101D) [%]	cell count (A2058) [%]	cell count (A375) [%]	cell count (501Mel) [%]
COCC[n+]1c2c(n(Cc3cnccn3)c1C)C(=O)c1ccccc1C2=O + CN(C)S(=O)(=O)c1ccc2c(c1)/C(=C/c1cc3c([nH]1)CCCC3)C(=O)N2 [SU6656] (first compound 0.002 µM, partner dose 2 µM)	53.2	14.6	126	
Cn1c(Nc2ccc(C(F)(F)F)cc2)nc2cc(Oc3ccnc(-c4ncc(C(F)(F)F)[nH]4)c3)ccc21 + O=C(Nc1ccccc1)c1cc([N+](=O)[O-])ccc1Cl [GW9662] (first compound 0.4 µM, partner dose 10 µM)	67.7	90.4	80.7	36.4
Cn1c(Nc2ccc(C(F)(F)F)cc2)nc2cc(Oc3ccnc(-c4ncc(C(F)(F)F)[nH]4)c3)ccc21 + C=CCn1c(=O)c2cnc(Nc3ccc(N4CCN(C)CC4)cc3)nc2n1-c1cccc(C(C)(C)O)n1 [MK1775] (first compound 0.4 µM, partner dose 0.1 µM)	50	60.6	53.4	
O=C(CCCCCCC(=O)Nc1ccccc1)NO [vorinostat] + OCCn1cc(-c2cnc3nnn(Cc4ccc5ncccc5c4)c3n2)cn1 [PF04217903] (first compound 0.4 µM, partner dose 5 µM)	95.4	82.9	124	
O=C(CCCCCCC(=O)Nc1ccccc1)NO [vorinostat] + C[C@@H]1CCN(C(=O)CC#N)C[C@@H]1N(C)c1ncnc2[nH]ccc12 [CP690550] (first compound 0.4 µM, partner dose 5 µM)	85.3	95	91.6	
